# Experimental data reported in a collection of fitness landscapes (doi:10.1016/j.celrep.2020.107928).
# In all, about 81,000 sequences were measured (“one-hybrid fitness for binding parS DNA”: median about -0.17, highest 2% from about 0.51 on). The list shows a part of the results.
# B1: Caulobacter ParB omega fusion; a variant is named by its letters at X, in order, B8GW30 (parent)
# chain: MESVVVGEPGMSEGRRGLGRGLSALLGEVDAAPAQAPGEQLGGSREAPIEILQRNPDQPRRTFREEDLEDLSNSIREKGVLQPILVRPSPDTAGEYQIVAGERAWRAAQRAGLKTVPIMVRELDDLAVLEIGIIENVQRADLNVLEEALSYKVLMEKFERTQENIAQTIGKSXSHVANXMRLLXLPDEVQSYLVSGELTAXHARAIAAAADPVALAKQIIEGGLSVRETEALARKAPNLSAGKSKGGRPPRVKDTDTQALESDLSSVLGLDVSIDHRGSTGTLTITYATLEQLDDLCNRLTRGI
# Variants of: B1
# Assay: one-hybrid fitness for binding parS DNA (scaled: cognate 1, non-cognate 0); higher = stronger binding
# Settings: with parS DNA site
# Procedure, shortened: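 Selection: bacterial one-hybrid in E. coli USO, HIS3 reporter with the site 19 bp from the promoter, 48 hours at 37°C on M9-minus-histidine plus 0.1 mM IPTG and 5 mM 3-AT. Libraries were Caulobacter ParB with four randomised specificity codons, sequenced on Illumina before and after selection. Fitness is the rescaled log change in variant-to-wild-type read ratio, anchored to the cognate and non-cognate sites.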
row,Variant,one-hybrid fitness for binding parS DNA
1,DQKL,≤ 0.2
2,LMMY,≤ 0.2
3,PTNR,≤ 0.2
4,CKLC,≤ 0.2
5,VANA,≤ 0.2
6,RWDL,≤ 0.2
7,ECIR,≤ 0.2
8,ATNI,≤ 0.2
9,VYCR,≤ 0.2
10,NRGY,≤ 0.2
11,HWLV,≤ 0.2
12,YRHN,≤ 0.2
13,EDSF,≤ 0.2
14,KAKY,≤ 0.2
15,ACSC,≤ 0.2
16,PPFG,≤ 0.2
17,SSGR,≤ 0.2
18,TKWF,≤ 0.2
19,YKLT,≤ 0.2
20,LRAK,≤ 0.2
21,QKTF,≤ 0.2
22,IIPV,≤ 0.2
23,YTIV,≤ 0.2
24,HTMP,≤ 0.2

row,Variant,one-hybrid fitness for binding parS DNA
1,TRSI,≤ 0.2
2,QVSV,≤ 0.2
3,RKSN,0.296
4,VKKT,≤ 0.2
5,PGMM,≤ 0.2
6,QMYL,≤ 0.2
7,QLAR,≤ 0.2
8,KRSY,≤ 0.2
9,EHHR,≤ 0.2
10,QIQA,≤ 0.2
11,TRGQ,≤ 0.2
12,FDLP,≤ 0.2
13,RWLF,≤ 0.2
14,SESQ,≤ 0.2
15,KDVC,≤ 0.2
16,CQCR,≤ 0.2
17,PPMK,≤ 0.2
18,PLKG,≤ 0.2
19,RQVG,0.88
20,TFSG,≤ 0.2
21,VRRD,≤ 0.2
22,LGCT,≤ 0.2
23,PTPQ,≤ 0.2
24,RCHM,0.355

row,Variant,one-hybrid fitness for binding parS DNA
1,AGER,≤ 0.2
2,RIGD,≤ 0.2
3,ISEA,≤ 0.2
4,SGMF,≤ 0.2
5,KRIK,≤ 0.2
6,GENT,≤ 0.2
7,RCCW,0.244
8,HVHW,≤ 0.2
9,CFHT,≤ 0.2
10,IALY,≤ 0.2
11,NCTK,≤ 0.2
12,VPCV,≤ 0.2
13,PPLH,≤ 0.2
14,PNGL,≤ 0.2
15,CQMR,≤ 0.2
16,LWAC,≤ 0.2
17,LWFS,≤ 0.2
18,HSGL,≤ 0.2
19,PPKE,≤ 0.2
20,FHKS,≤ 0.2
21,KPSE,≤ 0.2
22,MLTP,≤ 0.2
23,RTPV,≤ 0.2
24,DMVS,≤ 0.2

row,Variant,one-hybrid fitness for binding parS DNA
1,AEPA,≤ 0.2
2,NNEF,≤ 0.2
3,QIGY,≤ 0.2
4,FIKR,≤ 0.2
5,TVNA,≤ 0.2
6,PPGR,≤ 0.2
7,HSSF,≤ 0.2
8,PKSA,≤ 0.2
9,MLVS,≤ 0.2
10,RNQE,≤ 0.2
11,GTMI,≤ 0.2
12,EGYL,≤ 0.2
13,EMHF,≤ 0.2
14,QSCE,≤ 0.2
15,FVLG,≤ 0.2
16,VICT,≤ 0.2
17,CHIR,≤ 0.2
18,QDKS,≤ 0.2
19,QKEH,≤ 0.2
20,IRTR,≤ 0.2
21,RWDA,0.29
22,ENDR,≤ 0.2
23,RKID,≤ 0.2
24,VMFL,≤ 0.2

row,Variant,one-hybrid fitness for binding parS DNA
1,QNSR,≤ 0.2
2,NLRA,≤ 0.2
3,SAHN,≤ 0.2
4,TWKR,≤ 0.2
5,DRIT,≤ 0.2
6,CIRS,≤ 0.2
7,STLM,≤ 0.2
8,RSKF,0.35
9,GCWW,0.205
10,AATW,≤ 0.2
11,SRER,≤ 0.2
12,KYGV,≤ 0.2
13,TDPT,≤ 0.2
14,SALD,≤ 0.2
15,IVAK,≤ 0.2
16,RQGT,0.847
17,VKYP,≤ 0.2
18,HLTG,≤ 0.2
19,CPMT,≤ 0.2
20,NKTE,≤ 0.2
21,THLH,≤ 0.2
22,TEAS,≤ 0.2
23,NTSP,≤ 0.2
24,CPVL,≤ 0.2

row,Variant,one-hybrid fitness for binding parS DNA
1,YAKM,≤ 0.2
2,SCNE,≤ 0.2
3,TFDG,≤ 0.2
4,AWRS,≤ 0.2
5,FLAT,≤ 0.2
6,RSRT,0.832
7,CFDR,≤ 0.2
8,DTYS,≤ 0.2
9,VRNM,≤ 0.2
10,SLDR,≤ 0.2
11,TFMM,≤ 0.2
12,RQEN,0.379
13,VQHY,≤ 0.2
14,CHHS,≤ 0.2
15,DLVG,≤ 0.2
16,CGSA,≤ 0.2
17,VPSL,≤ 0.2
18,YLIC,≤ 0.2
19,SFNI,≤ 0.2
20,HVRG,≤ 0.2
21,LKHK,≤ 0.2
22,WSYA,≤ 0.2
23,QTWI,≤ 0.2
24,PRWR,≤ 0.2

row,Variant,one-hybrid fitness for binding parS DNA
1,VLIC,≤ 0.2
2,RVRR,≤ 0.2
3,RQCE,≤ 0.2
4,FHCT,≤ 0.2
5,EDQG,≤ 0.2
6,SSAW,≤ 0.2
7,HGKF,≤ 0.2
8,KSVT,≤ 0.2
9,AFEG,≤ 0.2
10,WYCV,≤ 0.2
11,QVMD,≤ 0.2
12,NWPE,≤ 0.2
13,HTTR,≤ 0.2
14,MAVT,≤ 0.2
15,KWHL,≤ 0.2
16,RGQT,0.58
17,EATA,≤ 0.2
18,PSAA,≤ 0.2
19,ACLT,≤ 0.2
20,NATW,≤ 0.2
21,MLDV,≤ 0.2
22,MAKN,≤ 0.2
23,SITY,≤ 0.2
24,IHGP,≤ 0.2

row,Variant,one-hybrid fitness for binding parS DNA
1,EGKQ,≤ 0.2
2,PKLY,≤ 0.2
3,RIKC,0.805
4,YFHS,≤ 0.2
5,ATFG,≤ 0.2
6,IHRS,≤ 0.2
7,MWKC,≤ 0.2
8,EVEG,≤ 0.2
9,APQM,≤ 0.2
10,TKDN,≤ 0.2
11,SAFH,≤ 0.2
12,DLKR,≤ 0.2
13,RIMM,0.377
14,MVNS,≤ 0.2
15,RLPT,0.58
16,DGYT,≤ 0.2
17,PLQI,≤ 0.2
18,SNPF,≤ 0.2
19,IRCS,≤ 0.2
20,PVNG,≤ 0.2
21,QHDY,≤ 0.2
22,SIGV,≤ 0.2
23,TATE,≤ 0.2
24,KPTT,≤ 0.2

row,Variant,one-hybrid fitness for binding parS DNA
1,KCSR,≤ 0.2
2,QGEG,≤ 0.2
3,VIHG,≤ 0.2
4,ARAK,≤ 0.2
5,TSQP,≤ 0.2
6,ETSC,≤ 0.2
7,AESF,≤ 0.2
8,GPLW,≤ 0.2
9,TIKW,≤ 0.2
10,TRVA,≤ 0.2
11,KLNL,≤ 0.2
12,LIWC,≤ 0.2
13,KIKC,≤ 0.2
14,CHER,≤ 0.2
15,CKAE,≤ 0.2
16,WLLH,≤ 0.2
17,AFWW,≤ 0.2
18,QVTP,≤ 0.2
19,STFC,≤ 0.2
20,RWGI,≤ 0.2
21,GQPM,≤ 0.2
22,WAFR,≤ 0.2
23,PTKA,≤ 0.2
24,WACC,≤ 0.2

row,Variant,one-hybrid fitness for binding parS DNA
1,NVDM,≤ 0.2
2,TQVD,≤ 0.2
3,VCSS,≤ 0.2
4,WRHV,≤ 0.2
5,TQWR,≤ 0.2
6,YLQG,≤ 0.2
7,SAVD,≤ 0.2
8,LCFT,≤ 0.2
9,VQSV,≤ 0.2
10,ACLI,≤ 0.2
11,SLIT,≤ 0.2
12,WRKR,≤ 0.2
13,TNYW,≤ 0.2
14,TWPR,≤ 0.2
15,CYTV,≤ 0.2
16,HSCT,≤ 0.2
17,RVMH,≤ 0.2
18,DHNE,≤ 0.2
19,QPIC,≤ 0.2
20,GLTA,≤ 0.2
21,QGCC,≤ 0.2
22,AVYC,≤ 0.2
23,YNAK,≤ 0.2
24,QRIY,≤ 0.2

row,Variant,one-hybrid fitness for binding parS DNA
1,NITM,≤ 0.2
2,KPKK,≤ 0.2
3,KCMS,≤ 0.2
4,HTIC,≤ 0.2
5,VPFT,≤ 0.2
6,CKKL,≤ 0.2
7,MMIR,≤ 0.2
8,INLT,≤ 0.2
9,RVCT,0.926
10,REVN,≤ 0.2
11,AAIL,≤ 0.2
12,DCAT,≤ 0.2
13,IESC,≤ 0.2
14,NASL,≤ 0.2
15,QRNC,≤ 0.2
16,TKKC,≤ 0.2
17,APNM,≤ 0.2
18,ALNS,≤ 0.2
19,RRFD,≤ 0.2
20,QYRT,≤ 0.2
21,NDSS,≤ 0.2
22,THTF,≤ 0.2
23,PILP,≤ 0.2
24,REED,≤ 0.2

row,Variant,one-hybrid fitness for binding parS DNA
1,CCDL,≤ 0.2
2,TMLR,≤ 0.2
3,HDSV,≤ 0.2
4,GCWT,≤ 0.2
5,ARMS,≤ 0.2
6,IRMG,≤ 0.2
7,SFVY,≤ 0.2
8,HEVG,≤ 0.2
9,HMHG,≤ 0.2
10,KCIS,≤ 0.2
11,HHCC,≤ 0.2
12,RWTY,0.37
13,FTAS,≤ 0.2
14,RGPC,0.217
15,CMGS,≤ 0.2
16,HLVD,≤ 0.2
17,SQMA,≤ 0.2
18,PCPG,≤ 0.2
19,ICNG,≤ 0.2
20,KRWF,≤ 0.2
21,KKET,≤ 0.2
22,NPAD,≤ 0.2
23,KQSF,≤ 0.2
24,CSQE,≤ 0.2

row,Variant,one-hybrid fitness for binding parS DNA
1,LNQH,≤ 0.2
2,MSQQ,≤ 0.2
3,VSLQ,≤ 0.2
4,SSIC,≤ 0.2
5,EYDR,≤ 0.2
6,SLTP,≤ 0.2
7,SMPC,≤ 0.2
8,VGKC,≤ 0.2
9,YPGQ,≤ 0.2
10,IRKT,≤ 0.2
11,PRCY,≤ 0.2
12,AFEI,≤ 0.2
13,YQHT,≤ 0.2
14,KNNN,≤ 0.2
15,WCVG,≤ 0.2
16,YAHV,≤ 0.2
17,KPWT,≤ 0.2
18,WHFS,≤ 0.2
